Source: the supplement of paper PMC7826260
This is one part of the list. Cleavage of a single-stranded DNA pool by Rep nickase domains was read by sequencing at 3 µM enzyme and 37 °C for 1 h; the strands have 90 letters, of which the middle is given. Numbers give uncut DNA relative to the enzyme-free pool, as log2; the lower, the more was cut; hits are not called. The scaling is to total reads, so uncut sequences can rise above 0 when many others are cut.

system: T1, Rep nickase domain of tomato golden mosaic virus; assay: uncleaved DNA left, log2 of reads against the no-enzyme library (log2 ratio); higher = less cleavage (more negative = more Rep cleavage of the k-mer); sequences stand for … in CTCGTCCG…ACCGGAGA
T1 sequence (residues 1-124, tag not shown): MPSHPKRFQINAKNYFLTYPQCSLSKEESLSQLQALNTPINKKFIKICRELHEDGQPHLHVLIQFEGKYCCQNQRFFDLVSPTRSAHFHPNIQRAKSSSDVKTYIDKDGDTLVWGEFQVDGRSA
Procedure: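 A pool of 90-nt single-stranded DNAs with seven random bases just before the constant AC of the nick site (name = the seven bases) was cut by 3 µM recombinant His6-SUMO-tagged Rep nickase domain (300 nM DNA, 50 mM HEPES pH 8.0, 50 mM NaCl, 1 mM MnCl2, 1 h, 37 °C, three replicates). Uncut DNA was amplified and sequenced.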

| Sequence | uncleaved DNA left (log2) |
| --- | --- |
| TTTATAT | -0.0549 |
| CATCTTT | -0.133 |
| AAGGCGC | 0.0645 |
| TTTGTTG | -0.129 |
| CAGTCCT | 0.0288 |
| TTACATC | -0.169 |
| GTAGTGA | -0.0481 |
| GCTACTA | -0.0856 |
| TCTCTCA | -0.146 |
| CGGTAAG | 0.0559 |
| ACCCCCC | 0.124 |
| TCGGTTC | -0.023 |
| GCGCCGA | 0.0412 |
| GTCTGTG | 0.137 |
| CCGGCCG | -0.0434 |
| ATATATC | 0.025 |
| GTACCCC | 0.14 |
| GGGGTTC | 0.0341 |
| GGGTCCG | 0.0759 |
| GAGTTAA | 0.124 |

| Sequence | uncleaved DNA left (log2) |
| --- | --- |
| ATCATCA | -0.03 |
| AGACTGT | -0.089 |
| GGGTTAG | -0.00441 |
| GATACTT | 0.0286 |
| ATCCCGA | -0.0165 |
| AGCTCAA | -0.0286 |
| ACGGAAC | 0.0457 |
| GATTATA | 0.0965 |
| GAGCAAA | 0.00867 |
| GCAGCCT | 0.00764 |
| ATTTTGC | -0.0337 |
| TGGGGCT | -0.0197 |
| TGTAATA | 0.121 |
| CTCTGCA | -0.0674 |
| AACACGC | 0.0125 |
| ATCGTGG | 0.021 |
| AGGAAGT | 0.0826 |
| CGTAGTA | -0.0325 |
| ACGAGTT | 0.185 |
| TTTACGA | 0.0203 |
